{"source": "patent US4496544A", "about": "“Atrial Peptides” (Washington University, priority 1984, dated 1985)", "key": {"chick rectum": {"test_system": "chick rectum", "test": "Intestinal smooth muscle (chick rectum) relaxation bioassay, carbachol-contracted, isoproterenol standard", "format": "cell-based", "settings": "for relaxation of intestinal smooth muscle (chick rectum), in words: carbachol-contracted chick rectum; for Specific Activity: chick rectum strips, dose response vs isoproterenol standard curve, one unit = 1 ng of isoproterenol"}, "rabbit thoracic aorta": {"test_system": "rabbit thoracic aorta", "test": "Vascular smooth muscle (rabbit aorta strip) relaxation bioassay, norepinephrine tone, nitroglycerin standard", "format": "cell-based", "settings": "norepinephrine-precontracted aorta strips"}, "Sprague-Dawley rats": {"test_system": "Sprague-Dawley rats", "test": "Natriuretic-diuretic assay (UNa V) after intravenous injection in anesthetized rats", "format": "in vivo, rat", "settings": "for UNa V: % of stable baseline values immediately prior to injection, intravenous injection of 2 μg peptide; for natriuretic-diuretic activity in vivo, in words: intravenous"}, "[1]": {"test_system": "isolated perfused rat kidney", "test": "Renal vasodilation in the isolated perfused rat kidney", "format": "cell-based"}, "renal resistance": {"test_system": "renal resistance", "test": "Renal vasodilation / renal resistance in vivo"}}, "note": "Entries after “also recorded” stand apart in the source; their conditions may differ. At least one peptide structure holds a part that was inferred or is arguable (an end, a ring closure or a residue). Some entries repeat one wording, which the source may state once for all of them. Positions of bridges follow the written chain, without caps; N, C: chain ends. Residues, ends and D or L forms follow the SMILES beside them."}
{"compound": "CC[C@H](C)[C@@H]1NC(=O)[C@H](CCCNC(=N)N)NC(=O)[C@H](CC(=O)O)NC(=O)[C@H]([C@@H](C)CC)NC(=O)[C@H](CCCNC(=N)N)NC(=O)CNC(=O)CNC(=O)[C@H](Cc2ccccc2)NC(=O)[C@@H](NC(=O)[C@H](CO)NC(=O)[C@@H](N)CO)CSSC[C@@H](C(=O)N[C@@H](CC(N)=O)C(=O)N[C@@H](CO)C(=O)N[C@@H](Cc2ccccc2)C(=O)N[C@@H](CCCNC(=N)N)C(=O)O)NC(=O)CNC(=O)[C@H](CC(C)C)NC(=O)CNC(=O)[C@H](CO)NC(=O)[C@H](CCC(N)=O)NC(=O)[C@H](C)NC(=O)CNC1=O", "note": "[Atriopeptin II, Ser--ser--cys--phe--gly--gly--arg--ile--asp--arg--ile--gly--ala--gln--ser--gly--leu--gly--cys--asn--ser^21 --phe--arg^23] (H-SSCFGGRIDRIGAQSGLGCNSFR-OH; disulfide 3-19)", "values": [{"measurement": "relaxation of intestinal smooth muscle (chick rectum), in words", "setting": "chick rectum", "result": "intestinal spasmolytics; also recorded: relaxes both vascular and intestinal smooth muscle"}, {"measurement": "Specific Activity", "setting": "chick rectum", "result": "52,400 u/mg"}, {"measurement": "relaxation of vascular smooth muscle (rabbit aorta), in words", "setting": "rabbit thoracic aorta", "result": "potent vascular smooth muscle relaxants; also recorded: relaxes both vascular and intestinal smooth muscle"}, {"measurement": "relaxation of vascular smooth muscle (rabbit aorta), in words", "setting": "rabbit thoracic aorta; listed as RAF-I", "result": "potent vascular smooth muscle relaxant in vitro"}, {"measurement": "UNa V", "setting": "Sprague-Dawley rats", "result": "1869 ± 114", "unit": "%"}, {"measurement": "natriuretic-diuretic activity in vivo, in words", "setting": "Sprague-Dawley rats", "result": "potent natriuretic-diuretic in vivo"}, {"measurement": "natriuretic-diuretic activity in vivo, in words", "setting": "Sprague-Dawley rats; listed as Atriopeptins II", "result": "equipotent and somewhat more active than atriopeptin I"}, {"measurement": "natriuretic-diuretic activity in vivo, in words", "setting": "Sprague-Dawley rats; listed as RAF-I", "result": "considerably more potent as a natriuretic substance than CRF-I"}, {"measurement": "renal vasodilation, in words", "setting": "[1]", "result": "produced a concentration dependent renal vasodilation"}, {"measurement": "renal vasodilation / reduction of renal resistance in vivo, in words", "setting": "renal resistance", "result": "selective renal vasodilator in vivo"}]}
{"compound": "CC[C@H](C)[C@@H]1NC(=O)[C@H](CCCNC(=N)N)NC(=O)[C@H](CC(=O)O)NC(=O)[C@H]([C@@H](C)CC)NC(=O)[C@H](CCCNC(=N)N)NC(=O)CNC(=O)CNC(=O)[C@H](Cc2ccccc2)NC(=O)[C@@H](NC(=O)[C@H](CO)NC(=O)[C@@H](N)CO)CSSC[C@@H](C(=O)N[C@@H](CC(N)=O)C(=O)O)NC(=O)CNC(=O)[C@H](CC(C)C)NC(=O)CNC(=O)[C@H](CO)NC(=O)[C@H](CCC(N)=O)NC(=O)[C@H](C)NC(=O)CNC1=O", "note": "[des-ser^21-atriopeptin I] (H-SSCFGGRIDRIGAQSGLGCN-OH; disulfide 3-19)", "values": [{"measurement": "relaxation of intestinal smooth muscle (chick rectum), in words", "setting": "chick rectum", "result": "relaxed intestinal strips"}, {"measurement": "Specific Activity", "setting": "chick rectum", "result": "62,500 u/mg"}, {"measurement": "relaxation of vascular smooth muscle (rabbit aorta), in words", "setting": "rabbit thoracic aorta", "result": "ineffective on blood vessel strips"}, {"measurement": "UNa V", "setting": "Sprague-Dawley rats", "result": "235 ± 70", "unit": "%"}, {"measurement": "natriuretic-diuretic activity in vivo, in words", "setting": "Sprague-Dawley rats", "result": "natriuretic and diuretic"}]}
{"compound": "CC[C@H](C)[C@@H]1NC(=O)[C@H](CCCNC(=N)N)NC(=O)[C@H](CC(=O)O)NC(=O)[C@H]([C@@H](C)CC)NC(=O)[C@H](CCCNC(=N)N)NC(=O)CNC(=O)CNC(=O)[C@H](Cc2ccccc2)NC(=O)[C@@H](NC(=O)[C@H](CO)NC(=O)[C@@H](N)CO)CSSC[C@@H](C(=O)N[C@@H](CC(N)=O)C(=O)N[C@@H](CO)C(=O)O)NC(=O)CNC(=O)[C@H](CC(C)C)NC(=O)CNC(=O)[C@H](CO)NC(=O)[C@H](CCC(N)=O)NC(=O)[C@H](C)NC(=O)CNC1=O", "note": "[Atriopeptin I, Ser--ser--cys--phe--gly--gly--arg--ile--asp--arg--ile--gly--ala--gln--ser--gly--leu--gly--cys--asn--ser] (H-SSCFGGRIDRIGAQSGLGCNS-OH; disulfide 3-19)", "values": [{"measurement": "relaxation of intestinal smooth muscle (chick rectum), in words", "setting": "chick rectum", "result": "relaxes intestinal"}, {"measurement": "relaxation of intestinal smooth muscle (chick rectum), in words", "setting": "chick rectum; listed as CRF-I", "result": "produced a concentration dependent relaxation; also recorded: relaxation of the intestinal smooth muscle"}, {"measurement": "Specific Activity", "setting": "chick rectum", "result": "37,600 u/mg"}, {"measurement": "relaxation of vascular smooth muscle (rabbit aorta), in words", "setting": "rabbit thoracic aorta", "result": "relaxes intestinal but not vascular smooth muscle"}, {"measurement": "relaxation of vascular smooth muscle (rabbit aorta), in words", "setting": "rabbit thoracic aorta; listed as CRF-I", "result": "did not relax the precontracted aorta strips; also recorded: does not relax isolated blood vessel strips"}, {"measurement": "UNa V", "setting": "Sprague-Dawley rats", "result": "1130 ± 38", "unit": "%"}, {"measurement": "natriuretic-diuretic activity in vivo, in words", "setting": "Sprague-Dawley rats", "result": "natriuretic and diuretic in vivo"}, {"measurement": "natriuretic-diuretic activity in vivo, in words", "setting": "Sprague-Dawley rats; listed as CRF-1", "result": "produces an increase in urinary sodium concentration"}, {"measurement": "natriuretic-diuretic activity in vivo, in words", "setting": "Sprague-Dawley rats; listed as CRF-I", "result": "requires large doses and produces a variable in vivo response; also recorded: weak natriuretic activity"}, {"measurement": "renal vasodilation / reduction of renal resistance in vivo, in words", "setting": "renal resistance", "result": "nor does it reduce renal resistance in vivo"}]}
{"compound": "CC[C@H](C)[C@@H]1NC(=O)[C@H](CCCNC(=N)N)NC(=O)[C@H](CC(=O)O)NC(=O)[C@H]([C@@H](C)CC)NC(=O)[C@H](CCCNC(=N)N)NC(=O)CNC(=O)CNC(=O)[C@H](Cc2ccccc2)NC(=O)[C@@H](N)CSSC[C@@H](C(=O)N[C@@H](CC(N)=O)C(=O)N[C@@H](CO)C(=O)O)NC(=O)CNC(=O)[C@H](CC(C)C)NC(=O)CNC(=O)[C@H](CO)NC(=O)[C@H](CCC(N)=O)NC(=O)[C@H](C)NC(=O)CNC1=O", "note": "[des-ser^1, ser^2 -atriopeptin I, des--ser^1, ser^2 - CRF-I] (H-CFGGRIDRIGAQSGLGCNS-OH; disulfide 1-17)", "values": [{"measurement": "relaxation of intestinal smooth muscle (chick rectum), in words", "setting": "chick rectum", "result": "relaxed intestinal strips"}, {"measurement": "relaxation of intestinal smooth muscle (chick rectum), in words", "setting": "chick rectum; listed as CRF-III", "result": "fully biologically active"}, {"measurement": "relaxation of intestinal smooth muscle (chick rectum), in words", "setting": "chick rectum; ser^2 -atriopeptin", "result": "active peptides"}, {"measurement": "relaxation of vascular smooth muscle (rabbit aorta), in words", "setting": "rabbit thoracic aorta", "result": "ineffective on blood vessel strips"}, {"measurement": "natriuretic-diuretic activity in vivo, in words", "setting": "Sprague-Dawley rats", "result": "natriuretic and diuretic"}]}
{"compound": "CC[C@H](C)[C@@H]1NC(=O)[C@H](CCCNC(=N)N)NC(=O)[C@H](CC(=O)O)NC(=O)[C@H]([C@@H](C)CC)NC(=O)[C@H](CCCNC(=N)N)NC(=O)CNC(=O)CNC(=O)[C@H](Cc2ccccc2)NC(=O)[C@@H](NC(=O)[C@@H](N)CO)CSSC[C@@H](C(=O)N[C@@H](CC(N)=O)C(=O)N[C@@H](CO)C(=O)O)NC(=O)CNC(=O)[C@H](CC(C)C)NC(=O)CNC(=O)[C@H](CO)NC(=O)[C@H](CCC(N)=O)NC(=O)[C@H](C)NC(=O)CNC1=O", "note": "[des-ser^1 -atriopeptin I, des--ser^1 - CRF-I] (H-SCFGGRIDRIGAQSGLGCNS-OH; disulfide 2-18)", "values": [{"measurement": "relaxation of intestinal smooth muscle (chick rectum), in words", "setting": "chick rectum", "result": "active peptides; also recorded: relaxed intestinal strips"}, {"measurement": "relaxation of intestinal smooth muscle (chick rectum), in words", "setting": "chick rectum; listed as CRF-II", "result": "fully biologically active"}, {"measurement": "relaxation of vascular smooth muscle (rabbit aorta), in words", "setting": "rabbit thoracic aorta", "result": "ineffective on blood vessel strips"}, {"measurement": "natriuretic-diuretic activity in vivo, in words", "setting": "Sprague-Dawley rats", "result": "natriuretic and diuretic"}]}
{"compound": "CC[C@H](C)[C@@H]1NC(=O)[C@H](CCCNC(=N)N)NC(=O)[C@H](CC(=O)O)NC(=O)[C@H]([C@@H](C)CC)NC(=O)[C@H](CCCNC(=N)N)NC(=O)CNC(=O)CNC(=O)[C@H](Cc2ccccc2)NC(=O)[C@@H](NC(=O)[C@H](CO)NC(=O)[C@@H](N)CO)CSSC[C@@H](C(=O)N[C@@H](CC(N)=O)C(=O)N[C@@H](CO)C(=O)N[C@@H](Cc2ccccc2)C(=O)N[C@@H](CCCNC(=N)N)C(=O)N[C@@H](Cc2ccc(O)cc2)C(=O)O)NC(=O)CNC(=O)[C@H](CC(C)C)NC(=O)CNC(=O)[C@H](CO)NC(=O)[C@H](CCC(N)=O)NC(=O)[C@H](C)NC(=O)CNC1=O", "note": "[Atriopeptin III] (H-SSCFGGRIDRIGAQSGLGCNSFRY-OH; disulfide 3-19)", "values": [{"measurement": "relaxation of intestinal smooth muscle (chick rectum), in words", "setting": "chick rectum", "result": "intestinal spasmolytics"}, {"measurement": "Specific Activity", "setting": "chick rectum", "result": "62,500 u/mg"}, {"measurement": "relaxation of vascular smooth muscle (rabbit aorta), in words", "setting": "rabbit thoracic aorta", "result": "potent vascular smooth muscle relaxants"}, {"measurement": "UNa V", "setting": "Sprague-Dawley rats", "result": "1241 ± 261", "unit": "%"}, {"measurement": "natriuretic-diuretic activity in vivo, in words", "setting": "Sprague-Dawley rats", "result": "equipotent and somewhat more active than atriopeptin I"}, {"measurement": "renal vasodilation, in words", "setting": "[1]", "result": "produced a concentration dependent renal vasodilation"}]}
